Assay results from US20230250184A1 (NANJING LEGEND BIOTECH, published 2023).

What was measured:
Human CD22 Protein = biological target: T1, Human CD22 Protein (human, UniProt P20273 20-687); test: SPR (Biacore 8K), 25 C, mAb captured on protein A chip, human CD22 protein as analyte, 1:1 model
T1 construct: They are treated here as one molecule; also called CD22 antigen
T1 sequence (looked up): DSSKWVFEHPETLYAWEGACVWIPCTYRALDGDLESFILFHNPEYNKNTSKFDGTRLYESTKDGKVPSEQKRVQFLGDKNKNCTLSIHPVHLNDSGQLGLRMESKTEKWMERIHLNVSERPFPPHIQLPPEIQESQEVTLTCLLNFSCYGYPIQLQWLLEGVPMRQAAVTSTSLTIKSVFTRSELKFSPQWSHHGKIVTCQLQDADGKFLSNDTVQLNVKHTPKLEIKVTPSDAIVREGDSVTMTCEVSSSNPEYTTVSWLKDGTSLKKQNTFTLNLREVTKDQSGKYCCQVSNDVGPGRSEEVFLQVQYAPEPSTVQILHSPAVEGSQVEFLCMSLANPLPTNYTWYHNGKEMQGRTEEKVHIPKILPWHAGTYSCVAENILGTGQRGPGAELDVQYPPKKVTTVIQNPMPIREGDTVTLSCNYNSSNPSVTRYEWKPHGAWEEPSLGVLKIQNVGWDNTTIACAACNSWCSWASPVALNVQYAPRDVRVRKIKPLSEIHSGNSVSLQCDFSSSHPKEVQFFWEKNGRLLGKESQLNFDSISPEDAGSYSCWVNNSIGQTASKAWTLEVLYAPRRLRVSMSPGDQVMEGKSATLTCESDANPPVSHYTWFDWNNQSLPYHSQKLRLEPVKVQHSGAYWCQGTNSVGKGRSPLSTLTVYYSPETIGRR

[1] = biological target: T2, human CD22 on cells (Daudi, Raji, Nalm.6, K562-CD22) (human, UniProt P20273 20-847); test: flow cytometry on Raji cells, PE anti-human IgG1 Fc detection
T2 construct: whole, on cells; also called CD22 receptor; CD22 positive cell lines
T2 sequence (looked up): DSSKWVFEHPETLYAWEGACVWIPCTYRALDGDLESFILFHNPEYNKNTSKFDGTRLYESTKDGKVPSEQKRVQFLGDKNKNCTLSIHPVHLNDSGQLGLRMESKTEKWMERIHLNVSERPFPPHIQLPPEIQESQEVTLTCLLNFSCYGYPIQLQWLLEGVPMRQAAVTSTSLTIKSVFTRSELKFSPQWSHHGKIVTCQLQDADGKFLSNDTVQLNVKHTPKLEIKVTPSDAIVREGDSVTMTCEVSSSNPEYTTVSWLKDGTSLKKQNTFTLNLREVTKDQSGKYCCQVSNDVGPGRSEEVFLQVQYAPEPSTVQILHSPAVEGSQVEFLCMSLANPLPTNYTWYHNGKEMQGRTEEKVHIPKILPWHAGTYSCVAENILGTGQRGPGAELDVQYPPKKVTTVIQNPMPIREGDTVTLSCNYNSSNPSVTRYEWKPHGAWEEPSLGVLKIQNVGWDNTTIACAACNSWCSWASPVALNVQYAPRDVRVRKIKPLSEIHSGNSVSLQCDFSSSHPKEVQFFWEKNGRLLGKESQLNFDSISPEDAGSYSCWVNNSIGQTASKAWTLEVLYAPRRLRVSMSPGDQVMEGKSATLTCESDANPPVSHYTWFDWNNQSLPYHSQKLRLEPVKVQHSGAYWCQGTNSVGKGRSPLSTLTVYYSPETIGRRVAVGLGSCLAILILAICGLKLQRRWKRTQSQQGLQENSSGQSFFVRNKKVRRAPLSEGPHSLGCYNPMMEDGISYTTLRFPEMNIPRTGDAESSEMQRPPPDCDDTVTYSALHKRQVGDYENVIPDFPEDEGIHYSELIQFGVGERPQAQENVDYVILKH

[2] = biological target: T2, human CD22 on cells (Daudi, Raji, …); test: flow cytometry on Daudi cells, PE anti-human IgG1 Fc detection

B1: VHH-66-huIgG1Fc mAb (Fc fusion)
chain: EVQLVESGPGLVKPSQTLSLTCTVSGASITTGEFYWNWFRQPPGKGLEWMGAIAASGSTTYSPSFESRTSISRDTSENQFYLQLSSVTPEDTAVYYCGRSFGVAAVTTGQNRGQGTQVTVSS[human IgG1 Fc left out]
notes: VHH fused to the human IgG1 Fc fragment and expressed in Expi293F; the text around them names VHH-66-huIgG1Fc mAb; also called Anti-CD22 VHH-huIgG1Fc mAb; exemplary anti-CD22 VHH-huIgG1Fc mAb
- Kd (Human CD22 Protein): 4.76 nM
- koff (Human CD22 Protein): 0.000528 s⁻¹
- kon (Human CD22 Protein): 111000 M⁻¹ s⁻¹
- EC50 [1]: 0.93 nM
- EC50 [2]: 0.91 nM
